Test results from article PMC9911399, “Two distinct binding modes provide the RNA-binding protein RbFox with extraordinary sequence specificity”.
Changes are numbered by the printed parent chain; changes in the protein carry UniProt numbers. The list shows a part of the results.

T1: RBFOX1 RRM RbFoxmut (Fox-RRM*) (Homo sapiens, UniProt Q9NWB1 109-208, R118D;E147R;N151S;E152T)
T1 sequence: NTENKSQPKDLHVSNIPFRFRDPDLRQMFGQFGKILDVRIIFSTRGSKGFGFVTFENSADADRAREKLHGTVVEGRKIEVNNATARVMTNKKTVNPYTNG

B1: UUACCAC (DNA:RNA)
RNA: GGGAGACCGGAAUUCAGAUUGUCCUUACCACUUAAAUCCCGUCGUAGCCACCA
DNA 1: CAATCTGAATTCCGGTCTCCC
DNA 2: TGGTGGCTACGACGGGATT
B2: AUUUGUU (DNA:RNA)
RNA: B1 RNA with U25A, A27U, C28U, C29G, A30U, C31U
DNA 1: CAATCTGAATTCCGGTCTCCC
DNA 2: TGGTGGCTACGACGGGATT
B3: UUUACCA (DNA:RNA)
RNA: B1 RNA with A27U, C28A, A30C, C31A
DNA 1: CAATCTGAATTCCGGTCTCCC
DNA 2: TGGTGGCTACGACGGGATT
B4: GAGACUC (DNA:RNA)
RNA: B1 RNA with U25G, U26A, A27G, C28A, A30U
DNA 1: CAATCTGAATTCCGGTCTCCC
DNA 2: TGGTGGCTACGACGGGATT
B5: CGUUCUA (DNA:RNA)
RNA: B1 RNA with U25C, U26G, A27U, C28U, A30U, C31A
DNA 1: CAATCTGAATTCCGGTCTCCC
DNA 2: TGGTGGCTACGACGGGATT
B6: GAGCCAG (DNA:RNA)
RNA: B1 RNA with U25G, U26A, A27G, C31G
DNA 1: CAATCTGAATTCCGGTCTCCC
DNA 2: TGGTGGCTACGACGGGATT
B7: CAGAUCA (DNA:RNA)
RNA: GGGAGACCGGAAUUCAGAUUGUCCCAGAUCAUUAAAUCCCGUCGUAGCCACCA
DNA 1: CAATCTGAATTCCGGTCTCCC
DNA 2: TGGTGGCTACGACGGGATT
B8: AGAAUAA (DNA:RNA)
RNA: B7 RNA with C25A, A26G, G27A, C30A
DNA 1: CAATCTGAATTCCGGTCTCCC
DNA 2: TGGTGGCTACGACGGGATT
B9: GCCGAAU (DNA:RNA)
RNA: B1 RNA with U25G, U26C, A27C, C28G, C29A, C31U
DNA 1: CAATCTGAATTCCGGTCTCCC
DNA 2: TGGTGGCTACGACGGGATT
B10: AGCUUAC (DNA:RNA)
RNA: B1 RNA with U25A, U26G, A27C, C28U, C29U
DNA 1: CAATCTGAATTCCGGTCTCCC
DNA 2: TGGTGGCTACGACGGGATT
B11: ACGUCCU (DNA:RNA)
RNA: B7 RNA with C25A, A26C, A28U, U29C, A31U
DNA 1: CAATCTGAATTCCGGTCTCCC
DNA 2: TGGTGGCTACGACGGGATT
B12: GGUAAAG (DNA:RNA)
RNA: B7 RNA with C25G, A26G, G27U, U29A, C30A, A31G
DNA 1: CAATCTGAATTCCGGTCTCCC
DNA 2: TGGTGGCTACGACGGGATT
B13: UCGAGAC (DNA:RNA)
RNA: B1 RNA with U26C, A27G, C28A, C29G
DNA 1: CAATCTGAATTCCGGTCTCCC
DNA 2: TGGTGGCTACGACGGGATT
B14: CCGACCU (DNA:RNA)
RNA: B7 RNA with A26C, U29C, A31U
DNA 1: CAATCTGAATTCCGGTCTCCC
DNA 2: TGGTGGCTACGACGGGATT
B15: UGAACAG (DNA:RNA)
RNA: B1 RNA with U26G, C28A, C31G
DNA 1: CAATCTGAATTCCGGTCTCCC
DNA 2: TGGTGGCTACGACGGGATT
B16: UGGGCAC (DNA:RNA)
RNA: B1 RNA with U26G, A27G, C28G
DNA 1: CAATCTGAATTCCGGTCTCCC
DNA 2: TGGTGGCTACGACGGGATT
B17: AGAAUAC (DNA:RNA)
RNA: B1 RNA with U25A, U26G, C28A, C29U
DNA 1: CAATCTGAATTCCGGTCTCCC
DNA 2: TGGTGGCTACGACGGGATT
B18: CGCCGCU (DNA:RNA)
RNA: B7 RNA with A26G, G27C, A28C, U29G, A31U
DNA 1: CAATCTGAATTCCGGTCTCCC
DNA 2: TGGTGGCTACGACGGGATT
B19: CUGAGAA (DNA:RNA)
RNA: B7 RNA with A26U, U29G, C30A
DNA 1: CAATCTGAATTCCGGTCTCCC
DNA 2: TGGTGGCTACGACGGGATT
B20: UGAGCAC (DNA:RNA)
RNA: B1 RNA with U26G, C28G
DNA 1: CAATCTGAATTCCGGTCTCCC
DNA 2: TGGTGGCTACGACGGGATT
B21: AACGUCC (DNA:RNA)
RNA: B7 RNA with C25A, G27C, A28G, A31C
DNA 1: CAATCTGAATTCCGGTCTCCC
DNA 2: TGGTGGCTACGACGGGATT
B22: CUGACUU (DNA:RNA)
RNA: B7 RNA with A26U, U29C, C30U, A31U
DNA 1: CAATCTGAATTCCGGTCTCCC
DNA 2: TGGTGGCTACGACGGGATT
B23: ACGGGCG (DNA:RNA)
RNA: B7 RNA with C25A, A26C, A28G, U29G, A31G
DNA 1: CAATCTGAATTCCGGTCTCCC
DNA 2: TGGTGGCTACGACGGGATT
B24: AGUAAGC (DNA:RNA)
RNA: B7 RNA with C25A, A26G, G27U, U29A, C30G, A31C
DNA 1: CAATCTGAATTCCGGTCTCCC
DNA 2: TGGTGGCTACGACGGGATT
B25: UGUCGGG (DNA:RNA)
RNA: B1 RNA with U26G, A27U, C29G, A30G, C31G
DNA 1: CAATCTGAATTCCGGTCTCCC
DNA 2: TGGTGGCTACGACGGGATT
B26: AAAAGUG (DNA:RNA)
RNA: B7 RNA with C25A, G27A, U29G, C30U, A31G
DNA 1: CAATCTGAATTCCGGTCTCCC
DNA 2: TGGTGGCTACGACGGGATT
B27: AUCAAGA (DNA:RNA)
RNA: B7 RNA with C25A, A26U, G27C, U29A, C30G
DNA 1: CAATCTGAATTCCGGTCTCCC
DNA 2: TGGTGGCTACGACGGGATT
B28: GCAUCUC (DNA:RNA)
RNA: B1 RNA with U25G, U26C, C28U, A30U
DNA 1: CAATCTGAATTCCGGTCTCCC
DNA 2: TGGTGGCTACGACGGGATT
B29: GUCUGGU (DNA:RNA)
RNA: B1 RNA with U25G, A27C, C28U, C29G, A30G, C31U
DNA 1: CAATCTGAATTCCGGTCTCCC
DNA 2: TGGTGGCTACGACGGGATT
B30: ACCGCAG (DNA:RNA)
RNA: B1 RNA with U25A, U26C, A27C, C28G, C31G
DNA 1: CAATCTGAATTCCGGTCTCCC
DNA 2: TGGTGGCTACGACGGGATT
B31: UGUUGGU (DNA:RNA)
RNA: B1 RNA with U26G, A27U, C28U, C29G, A30G, C31U
DNA 1: CAATCTGAATTCCGGTCTCCC
DNA 2: TGGTGGCTACGACGGGATT

biological target: T1, RBFOX1 RRM RbFoxmut (Fox-RRM*); assay: EMSA; HiTS-Eq, 1 nM pool, 10 min; buffer printed only for the single-RNA assays: 10 mM Tris pH 7.5, 150 mM NaCl, 3.4 mM EDTA, 0.001% NP-40, 30 C; conditions: tags: His6 N-terminal (pET28a); label: 5' 32P
Procedure, shortened: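 A pool of RNA with 7 randomized nucleotides, 5′-radiolabelled and with DNA-annealed flanks, was equilibrated at 1 nM for 10 min in 50 µL with purified RbFox RRM, wild type or mutant, across increasing protein concentrations. Free RNA was separated by 8% native PAGE, excised, reverse-transcribed, barcoded by PCR and sequenced. Relative association constants were obtained from read-count changes of each RNA species versus the control reaction and normalised to the cognate motif.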

Binder	binding signal
B1	0.0914 KA relative to UGCAUGU
B2	0.111 KA relative to UGCAUGU
B3	0.102 KA relative to UGCAUGU
B4	0.0694 KA relative to UGCAUGU
B5	0.0977 KA relative to UGCAUGU
B6	0.0861 KA relative to UGCAUGU
B7	0.0698 KA relative to UGCAUGU
B8	0.0784 KA relative to UGCAUGU
B9	0.0985 KA relative to UGCAUGU
B10	0.101 KA relative to UGCAUGU
B11	0.0891 KA relative to UGCAUGU
B12	0.0591 KA relative to UGCAUGU
B13	0.0707 KA relative to UGCAUGU
B14	0.0827 KA relative to UGCAUGU
B15	0.0611 KA relative to UGCAUGU
B16	0.0864 KA relative to UGCAUGU

Binder	binding signal
B17	0.0943 KA relative to UGCAUGU
B18	0.102 KA relative to UGCAUGU
B19	0.0798 KA relative to UGCAUGU
B20	0.093 KA relative to UGCAUGU
B21	0.0667 KA relative to UGCAUGU
B22	0.0682 KA relative to UGCAUGU
B23	0.114 KA relative to UGCAUGU
B24	0.0885 KA relative to UGCAUGU
B25	0.077 KA relative to UGCAUGU
B26	0.126 KA relative to UGCAUGU
B27	0.0663 KA relative to UGCAUGU
B28	0.135 KA relative to UGCAUGU
B29	0.192 KA relative to UGCAUGU
B30	0.0948 KA relative to UGCAUGU
B31	0.148 KA relative to UGCAUGU
